From the supplement of paper PMC10126150
Values marked as one replicate rest on one cluster of the flow cell; about a third of the high ones do not repeat.

System: ATP
Assay: switch fluorescence ratio, 500 uM ATP over buffer (Cy3 cluster intensity, sum of 5 cycles each) (fold (ratio)); higher = stronger signal-on switching upon ATP binding; sequences stand for … in TCGTCGGCAGCGTCAGATGTGTATAAGAGACAGTTTTTTTTTTTTTTTTTTTTTTTTT…TC
Settings: aptamer strand: ATP DNA aptamer (quencher-CACCTGGGGGAGTATTGCGGAGGAAGG + anchor), 100 nM annealed; ATP concentration: 500 uM; one replicate
Summary of the method: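 After annealing to 100 nM quencher-labelled ATP aptamer, Cy3-labelled switching-strand clusters on a modified Illumina MiSeq flow-cell were imaged in selection buffer. A second image followed after 15 min with 500 uM ATP at 22 °C, and five such buffer/ATP cycles were done, each separated by NaOH stripping and re-annealing. The fluorescence ratio, averaged per switch-domain sequence, is summed target-cycle over summed buffer-cycle Cy3 intensity per cluster, with clusters outside 100-1000 RFU excluded.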
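Also: ATP exposure 15 min at 22 °C before imaging.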

Sequence | switch fluorescence ratio
CCAACAAAC | 1.2
GGACGAATTT | 1.05
GGGCGATTCA | 0.995
AGTGAATCGG | 0.968
TCTTGCGCTA | 1.31
CTGCATCAAC | 2.15
AATGGTGGG | 0.999
TTAAGCAGGA | 1
ACTGACGAAA | 1.18
CATTTGCACT | 1.12
CTCTATGCTC | 1.17
ATAAGTGTTT | 0.998
TAGATGCTCT | 0.983
ACACCGGCAT | 1.19
GCGCAAACTC | 2.53
CGCTGTCCT | 1.69
GTGGTGAATT | 1.01
AGTTTGGGCT | 0.99
GCAGTGAGTT | 0.994
AATTTAGTAC | 0.98
AATGTTCGT | 0.998
TAGGTAAGCA | 1.01
GCCGTGAGGA | 0.992
CCTATCACTG | 1.02
GCAGACCAAA | 1.01

Sequence | switch fluorescence ratio
ACGAGGCTGT | 1.39
TCTTTCGTGG | 1.01
CTATCAACCA | 0.998
TAGTTTGGT | 0.994
GGCTGTGACG | 1
GGTTCTGGCA | 1.01
AGGTAAATTT | 0.959
TGAACTCTCA | 1.07
CGACTAATCG | 0.991
GTGTTTTTCT | 1.01
AAATGGCCGT | 0.973
TAGGTATATG | 0.967
TAGGGGCACC | 0.995
ATCATCCGGC | 1.14
TGGGGTTACG | 0.991
ACATTCTTTG | 0.996
TGTTACTT | 1.02
TACAAACGAT | 1.23
TGGCGATGGG | 1
CCTCCGGTTC | 1.7
GTGATAGATC | 1.05
GATCTGGAGT | 1.01
AAAGTTGA | 0.984
CTGGTAGTCA | 1.01
CAGAATGTAG | 0.983

Sequence | switch fluorescence ratio
CTTGTAGAGC | 1.06
TCTTGAGGAC | 1.01
TTTCTTAGAC | 1.02
CCAATCAGCT | 1.02
TCGCATTCT | 1.35
GCACGAGAAC | 1.08
TACGAAAATG | 1.18
ACCACCACAG | 1.28
TTTCCCAC | 1.01
CCACTCTGGA | 0.965
TGGCTACTTG | 0.957
TTGTTTCGTC | 1.02
AGGGCCGTTA | 1
CAGAGATGGA | 0.987
CATGGCTCGC | 1.04
GCGTGGGGTA | 1.02
TAAGAACATA | 0.974
GGTGTAAGGT | 1.06
GAGTGGTGGT | 0.976
AAGTCAACTT | 1.01
TCTCTTAAAC | 1.01
GGTGGCGGCT | 1.01
GGATCTAATT | 0.988
CGTGGGGTTA | 0.952
TGTAAACCGT | 1.16

Sequence | switch fluorescence ratio
CACTCTATCA | 1.03
AGACACGACT | 1.08
GACGGTCCGT | 1
GCTGTACATC | 1.02
CTATATTATA | 1
AGTTAAGAAC | 1.05
CACTTAATTT | 1.02
TAACAGCTC | 0.963
TTCGCGAGAT | 1.14
TTCTTAGTAA | 0.976
CTCTACTTTA | 1.06
TGAGTGGGTA | 0.981
AATAGTGGCC | 0.933
GATAAGAAGT | 1.03
TATTAGCGCC | 0.962
GGACTTGGGG | 1.01
CGATGACTCT | 0.966
TTAACCGGAT | 0.95
ATACGCTAGT | 1
TCGGCAAGGT | 1.23
TATGTGTTGT | 0.985
CAACTGGCAA | 1.87
TTACCGGCCT | 1.03
AGTAGTGTGA | 1.07
GGGTTCCAAC | 1.02

Sequence | switch fluorescence ratio
TTCTAGACGG | 1.03
CACCTATGCA | 1.1
GTTTGGAGAT | 0.981
AGGCATACCG | 1.06
GGATTGCACG | 0.996
ACATAGGTCC | 1.04
ATATACTCGG | 1.04
TGTAGTATGG | 0.985
GCGGAATCGG | 0.987
CGCTATAACA | 1.16
GGTTTCACCT | 1.04
GTTTGAGTCG | 1.05
CCCATTTTGA | 1.02
AACTTAGCCC | 1.23
GCATTTATTG | 0.969
CATATCCATT | 1.02
GGCGTCACGT | 1
TTTATCCACT | 1.06
CGAAAAAGAA | 1
GATGACTGTA | 1.15
TAAACTCTAA | 1.01
CACAGGAGCC | 1.04
AGATAAAGAA | 1.01
AGTGGATCTG | 1.01
TAACATCGAG | 0.971

Sequence | switch fluorescence ratio
ACTGGGGGAT | 1.03
TACAAGGTCG | 0.988
TATGGCGTGC | 0.973
CAAACGTACA | 1.79
GTCGGTGGTC | 0.998
TCTCAGGCT | 1.03
AGAACGTATT | 0.998
ATTTTCAGG | 0.989
TCCAAGTACA | 1.33
AGCTTCGAGT | 0.984
ATAAATTGAG | 0.961
CCGCCCGGGG | 1.2
TAGGAAGGAT | 0.972
CACAACTAGG | 1.11
TTTGCAGTGG | 1.03
CGCTAGACTT | 1.46
TGCATGATGA | 1.01
GCGAAAAATC | 1.04
TTCACGCGAC | 1.66
GCTGCCGGTT | 0.992
GGCCTAGAAA | 0.997
TCGATTAGAG | 1.15
TTAAAGTTTC | 1.03
CGTTAGACCT | 1.1
GATGAACTTT | 1

Sequence | switch fluorescence ratio
GAAATTCTGT | 0.979
CACAACTGCA | 1.06
TTGTTATAC | 1.09
CCCCGAGAAT | 1.09
AATATGTTGG | 0.964
TAATTACAAA | 1.01
CACAGTTTTT | 1.03
TTAACAGCAC | 1.36
TGAACTGGGA | 0.992
TGGTGTCGCT | 1.01
TACTGTAGTC | 1.1
CTAAAAAATA | 0.997
GCACTGCGTA | 1.06
GGCATTACGC | 1.11
CGGTTGAGTC | 1.04
CACTTTTGGA | 1.02
TAGAGGGTAA | 1.01
CGTTTGAGTC | 1.03
ATTAAGTAAG | 1.01
ACACGATGTC | 1.11
AAGCCCTGG | 1.07
GCGCGCAGCT | 0.973
CACTGATGAA | 0.984
GACTTTGTTA | 0.976
AGTCATTACG | 1

Sequence | switch fluorescence ratio
GAGCTACTTC | 1.06
CAGGACGGAT | 1
CATGGCTTGG | 0.963
ACGCTCAACT | 1.18
CGTAAGGAGC | 0.992
GCAAGTAGTC | 1.2
ACGCCGGGCC | 1.03
TTAGCTAATT | 1.03
GTGGTCTCTT | 0.953
CACCGTGTCC | 1.18
ATGAGATGTT | 0.973
CTGGGCGGCA | 1.04
CCAACCGTAG | 1.22
GTTTACATGG | 0.97
GATGCCATGA | 1.04
ATGGTCTAAA | 1.03
GGGTAACCCA | 1.01
AAAATAGAAA | 0.959
GCCCGAGACG | 1.01
CTACTCGGGG | 1.03
GGGGAATAAT | 1.01
AGAGTTTTA | 0.978
GTACTGATCC | 1.06
TTTCTGTAGG | 1.01
GTACTCTGCT | 1.05
